{"source": "PubChem BioAssay AID624417", "about": "(National Center for Advancing Translational Sciences (NCATS), 2012)", "note": "Several values for one entry are separate records, joined by “and”; a condition that tells them apart may be missing. Equal values may be shown once. Among all 410,000 compounds or so, about 6,400 (1.6%) were called active. The inconclusive results got no clear call from the source; some entries with a clear call stand among them for comparison. The call rests on the fitted dose curve; in most records, active means well fitted inhibition curve with a large enough effect; inconclusive means small, poorly fitted or top-dose-only effect; inactive means no such curve, though single readings can be large or run the other way. Potencies beside an inconclusive call are fits to weak or partial responses and may not hold up. On the % scale 0 is the no-effect control and ±100 the full control effect; potency means the concentration at half of the fitted maximal effect; tags describe the fitted curve by direction and shape."}
{"molecular_target": "Glucagon-like peptide 1 receptor (Homo sapiens) (UniProt P43220)", "sequence (P43220 whole entry, looked up)": "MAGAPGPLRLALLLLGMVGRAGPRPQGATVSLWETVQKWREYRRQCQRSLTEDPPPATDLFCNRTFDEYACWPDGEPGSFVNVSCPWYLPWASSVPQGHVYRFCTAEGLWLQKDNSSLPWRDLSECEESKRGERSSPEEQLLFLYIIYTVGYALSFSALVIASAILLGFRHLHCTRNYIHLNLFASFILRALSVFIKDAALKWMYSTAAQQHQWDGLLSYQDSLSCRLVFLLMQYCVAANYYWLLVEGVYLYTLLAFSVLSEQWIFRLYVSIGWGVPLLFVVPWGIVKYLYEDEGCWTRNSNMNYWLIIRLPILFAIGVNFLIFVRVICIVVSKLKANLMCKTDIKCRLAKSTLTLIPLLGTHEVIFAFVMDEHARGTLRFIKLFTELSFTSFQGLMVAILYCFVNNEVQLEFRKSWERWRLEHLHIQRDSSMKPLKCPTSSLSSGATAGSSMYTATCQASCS", "assay": "qHTS of GLP-1 Receptor Inverse Agonists (Inhibition Mode); further: nearly all actives have a fitted effect of over 55% in size", "details": "HEK293 GLP-1R CRE-luciferase, luminescence, 24 h, GLP-1R form is constitutively active; activity change, negative = inhibition: at 38.3 µM (top of the series) unless noted", "how_it_was_run": "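Constitutively active GLP-1R drives a cAMP-responsive luciferase in stably transfected HEK293 cells; test compounds are added after overnight (12 h) attachment and left 24 hr, and signal loss in luminescence marks inhibition.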"}
{"smiles": "Cc1ccc(N2CCN(S(=O)(=O)c3ccc4[nH]c5c(c4c3)CCCCC5)CC2)c(C)c1", "Potency": "inconclusive: 11.2 µM [inhibitor, single point]"}
{"smiles": "CCN(C(=O)c1cn(CC)c(=O)c2cc(OC)c(OC)cc12)c1ccc(C)c(C)c1", "activity change, negative = inhibition": "inactive: 2.03%"}
{"smiles": "Cc1ccc(-n2nc(C)c3cc(C(=O)O)sc32)cc1", "activity change, negative = inhibition": "inactive: 16.8%"}
{"smiles": "O=C(NNC(=O)c1cccnc1)Nc1cccc2ccccc12", "activity change, negative = inhibition": "inactive: -4.66%"}
{"smiles": "Cc1ccc2cccc(Oc3ncnc4scc(-c5ccc(Cl)cc5)c34)c2n1", "activity change, negative = inhibition": "inactive: 0%"}
{"smiles": "CCOc1ccc(NC(=O)CCSc2ccc(C)cc2)cc1", "Potency": "inconclusive: 28.2 µM [inhibitor, single point]"}
{"smiles": "Cc1cc(F)ccc1S(=O)(=O)Nc1ncnc2scc(-c3ccc(F)cc3)c12", "Potency": "inconclusive: 4.47 µM [inhibitor, partial curve]"}
{"smiles": "COc1ccc(N2CCN(C(=S)NCCc3ccccc3)CC2)cc1", "Potency": "inconclusive: 11.2 µM [inhibitor, partial curve, poor fit]"}
{"smiles": "Cc1cccc(NC(=O)CCc2c(C)nc3c(c(C)nn3C(C)(C)C)c2C)c1C", "activity change, negative = inhibition": "inactive: 0.76%"}
{"smiles": "CC(=O)Nc1nc2ccccc2n1Cc1ccc(Cl)cc1", "Potency": "inconclusive: 28.2 µM [inhibitor, single point]"}
{"smiles": "O=C(Nc1ccc2c(c1)OCO2)c1ccc(Cl)cc1Cl", "Potency": "inconclusive: 12.6 µM [inhibitor, single point]"}
{"smiles": "Cc1cccc(OCCOCCN2CCNCC2)c1C", "Potency": "inconclusive: 22.4 µM [inhibitor, single point]"}
{"smiles": "O=C(/C=C/c1ccccc1)Nc1ccc(Br)cn1", "activity change, negative = inhibition": "inactive: -22.1%"}
{"smiles": "COc1cccc2cc(C(=O)NCC3CCCO3)c(=O)oc12", "note": "(centres undefined)", "activity change, negative = inhibition": "inactive: 24.2%"}
{"smiles": "Cc1ccc(C)c(NC(=O)CCc2c(C)nn(-c3ccc(N4CCCCC4)nn3)c2C)c1", "Potency": "inconclusive: 14.1 µM [inhibitor, partial curve, poor fit]"}
{"smiles": "O=C(NC1CCCC1)C(c1ccncc1)N(Cc1ccco1)C(=O)c1ccc(-c2ccccc2)[nH]1", "note": "(centres undefined)", "Potency": "inconclusive: 11.2 µM [inhibitor, partial curve, poor fit]"}
{"smiles": "COc1ccc(N=Nc2ccc(O)c3ncccc23)cc1", "Potency": "inconclusive: 10 µM [inhibitor, partial curve]"}
{"smiles": "COc1ccc(-n2ncc3c2CC(C)(C)CC3NC(=O)c2ocnc2C)cc1", "note": "(centres undefined)", "Potency": "inconclusive: 11.2 µM [inhibitor, partial curve, poor fit]"}
{"smiles": "COc1ccc(C(c2nnnn2Cc2ccccc2)N2CCN(c3nc4ccccc4s3)CC2)cc1", "note": "(centres undefined)", "Potency": "inconclusive: 8.91 µM [inhibitor, partial curve, poor fit]"}
{"smiles": "CC(C)(C)OC(=O)CNC(=O)c1nc[nH]c1C(=O)N1CCc2ccccc2C1", "activity change, negative = inhibition": "inactive: 10.2%"}
{"smiles": "COc1ccc(CNCCC(c2ccc(OC(C)C)cc2)c2ccccc2OC)cc1OC", "note": "(centres undefined)", "Potency": "inconclusive: 12.6 µM [inhibitor, partial curve, poor fit]"}
{"smiles": "Fc1ccc(-c2cn3cc(Cc4ccccc4)sc3n2)cc1", "Potency": "inconclusive: 8.91 µM [inhibitor, partial curve]"}
{"smiles": "Cc1ccc(Cl)cc1N1CCN(C(=O)c2cc3c(-c4ccccc4F)nn(C)c3s2)CC1", "Potency": "inconclusive: 28.2 µM [inhibitor, single point]"}
{"smiles": "Cc1ccc(S(=O)(=O)N2CCCCC2)cc1NC(=O)COC(=O)c1cccn1C", "Potency": "inconclusive: 7.08 µM [inhibitor, partial curve, poor fit]"}
{"smiles": "COC(=O)C1=CN(Cc2ccc(C)cc2)C=C(C(=O)OC)C1c1cc(OC)c(OC)c(OC)c1", "Potency": "inconclusive: 28.2 µM [inhibitor, single point]"}
{"smiles": "COc1ccc(OCC(=O)O/N=C(\\N)Cc2ccc(Cl)cc2Cl)cc1", "Potency": "inconclusive: 28.2 µM [inhibitor, single point]"}
{"smiles": "CCOC(=O)c1c(C)[nH]c(C(=O)C(C)Sc2ccc(Cl)cc2)c1C", "note": "(centres undefined)", "Potency": "inconclusive: 10 µM [inhibitor, partial curve, poor fit]"}
{"smiles": "COc1ccc(CCNC(=O)c2ccc3c(c2)N(Cc2ccccc2C)C(=O)c2ccccc2S3)cc1OC", "Potency": "inconclusive: 20 µM [inhibitor, partial curve, poor fit]"}
{"smiles": "Cc1ccccc1NC(=S)N=Nc1c(O)n(C)c2ccc(S(=O)(=O)N3CCOCC3)cc12", "Potency": "inconclusive: 0.501 µM [inhibitor, full curve, poor fit]"}
{"smiles": "N#C/C(=C\\C1CC2C=CC1C2)c1nc2ccccc2[nH]1", "note": "(centres undefined)", "activity change, negative = inhibition": "inactive: -2.96%"}
{"smiles": "CCOc1ccccc1NC(=O)Nc1ccncc1", "Potency": "inconclusive: 28.2 µM [inhibitor, single point]"}
{"smiles": "Cc1cccc(CN2CCN(C(C)C(=O)NC(C)c3ccccc3)CC2)c1", "note": "(centres undefined)", "Potency": "inconclusive: 8.91 µM [inhibitor, partial curve]"}
{"smiles": "CC1CCC(C(C)C)C(OP(=O)(c2ccccc2)C(O)c2ccncc2)C1", "note": "(centres undefined)", "Potency": "inconclusive: 28.2 µM [inhibitor, single point]"}
{"smiles": "NNC(=S)NCc1ccccc1", "Potency": "inconclusive: 28.2 µM [inhibitor, single point]"}
{"smiles": "O=C(CSCc1c(Cl)cccc1Cl)Nc1ccc2c(c1)OCO2", "Potency": "inconclusive: 11.2 µM [inhibitor, single point]"}
{"smiles": "CC1CCCN(CCC(=O)Nc2ccc3c(c2)CCC3)C1", "note": "(centres undefined)", "Potency": "inconclusive: 14.1 µM [inhibitor, partial curve, poor fit]"}
{"smiles": "COC1OC(COCc2ccccc2)C(N)C(OCc2ccccc2)C1OCc1ccccc1", "note": "(centres undefined)", "Potency": "inconclusive: 31.6 µM [inhibitor, partial curve, poor fit]"}
{"smiles": "CN(C)c1ccc(Cc2cc3c(O)ccc(O)c3cc(Cc3ccc(N(C)C)cc3)c2=O)cc1", "Potency": "inconclusive: 28.2 µM [inhibitor, single point]"}
{"smiles": "COc1ccc(CNCc2ccc(OC)c3ccccc23)cc1", "Potency": "inconclusive: 11.2 µM [inhibitor, single point]"}
{"smiles": "Cc1ccc(NC(=O)Cn2nnc(C(=O)NCc3cccs3)c2N)cc1Cl", "Potency": "inconclusive: 10 µM [inhibitor, partial curve, poor fit]"}
{"smiles": "COc1ccc(CNC(=O)c2ccc(CNS(=O)(=O)c3ccc(F)cc3)cc2)cc1", "activity change, negative = inhibition": "inactive: 5.1%"}
{"smiles": "CCOc1ccc(OCC)c(NC(=O)Nc2ccc3c(c2)N(C)C(=O)CS3)c1", "Potency": "inconclusive: 28.2 µM [inhibitor, single point]"}
{"smiles": "COC(=O)c1sccc1S(=O)(=O)N(CC(=O)NCc1ccc(F)cc1)c1ccc(Cl)cc1", "Potency": "inconclusive: 10 µM [inhibitor, single point]"}
{"smiles": "Cc1ccc(OCc2cc(C(=O)N3CCc4sccc4C3)no2)cc1C", "Potency": "inconclusive: 15.8 µM [inhibitor, single point]"}
{"smiles": "OC(COc1ccc(Cl)cc1Cl)CN1CCc2ccccc2C1", "note": "(centres undefined)", "Potency": "inconclusive: 28.2 µM [inhibitor, partial curve, poor fit]"}
{"smiles": "Cc1ccc(S(=O)(=O)N2CCN(C(=O)c3cc(C4CC4)nc4c3cnn4C(C)C)CC2)cc1", "Potency": "inconclusive: 20 µM [inhibitor, single point]"}
{"smiles": "CSc1ccc(Cl)c(C(=O)NCCOc2ccccc2)c1", "Potency": "inconclusive: 31.6 µM [inhibitor, single point]"}
{"smiles": "Cc1nn(CC(=O)N2CCN(c3cccc(C(F)(F)F)c3)CC2)c(=O)c2cccn12", "Potency": "inconclusive: 10 µM [inhibitor, partial curve, poor fit] and inconclusive: 28.2 µM [inhibitor, single point]"}
{"smiles": "O=C(COc1ccc(Cl)cc1)c1ccc(O)cc1O", "Potency": "inconclusive: 22.4 µM [inhibitor, single point]"}
{"smiles": "C=CCNC(=S)NN=C1CCCCCCC1", "Potency": "active: 3.55 µM"}
{"smiles": "Cc1cc(NC(=O)c2cc(-c3cccs3)nc3ccccc23)no1", "Potency": "inconclusive: 5.01 µM [inhibitor, full curve, poor fit]"}
{"smiles": "Cn1c2ccccc2c2nnc(SCC(=O)Nc3cccc(C(=O)O)c3)nc21", "activity change, negative = inhibition": "inactive: 13.2%"}
{"smiles": "CC1(C(=O)Nc2ccc3c(c2)OCCO3)CCN1Cc1csc2ccccc12", "note": "(centres undefined)", "Potency": "inconclusive: 28.2 µM [inhibitor, single point]"}
{"smiles": "NC(=O)CSc1nc2cc(Cl)ccc2c(=O)n1C1CCCCC1", "Potency": "inconclusive: 8.91 µM [inhibitor, partial curve, poor fit]"}
{"smiles": "CC(Oc1ccc(Br)cc1)C(=O)Nc1cc(Cl)ccc1N1CCN(C)CC1", "note": "(centres undefined)", "Potency": "inconclusive: 11.2 µM [inhibitor, partial curve, poor fit]"}
{"smiles": "CC(C)(C)NCc1cc(Cl)ccc1OCc1ccccc1F", "Potency": "inconclusive: 14.1 µM [inhibitor, single point]"}
{"smiles": "O=C(N/N=C/C=C\\c1cccc([N+](=O)[O-])c1)c1cccnc1", "Potency": "inconclusive: 28.2 µM [inhibitor, single point]"}
{"smiles": "O=C(c1ccccc1)c1ccc(OCC(O)CNCc2cccc(Cl)c2)cc1", "note": "(centres undefined)", "activity change, negative = inhibition": "inconclusive: -85.3% [inhibitor]"}
{"smiles": "Cc1ccc(-c2cc(C(F)F)n3ncc(C(=O)N4CCN(c5ccccn5)CC4)c3n2)cc1", "Potency": "active: 6.31 µM"}
{"smiles": "O=C(CSc1ccc2nc(-c3ccccc3)cn2n1)Nc1cccc(F)c1", "activity change, negative = inhibition": "inactive: -5.12%"}
{"smiles": "CCOc1ccc(CCN2C(=O)C(=O)N([C@@H](Cc3ccc(O)cc3)CN3CCC[C@H]3CN3C(=O)C(=O)NC[C@@H]3CC(C)C)C[C@@H]2Cc2ccccc2)cc1", "activity change, negative = inhibition": "inactive: 3.91%"}
{"smiles": "COc1ccc(N2C(=S)N(C(=O)c3ccccc3)C(=Nc3ccccc3)C2=Nc2ccccc2)cc1", "Potency": "inconclusive: 28.2 µM [inhibitor, single point]"}
{"smiles": "Cc1cccc(-c2noc(CN(C)C(=O)COc3ccccc3)n2)c1", "Potency": "inconclusive: 28.2 µM [inhibitor, single point]"}
{"smiles": "CS(=O)(=O)c1nc(-c2ccccc2)cc(C(F)(F)F)n1", "Potency": "inconclusive: 10 µM [inhibitor, single point]"}
